# Experimental data reported in patent US20180305438A1 (ACCELERON PHARMA, published 2018).
# T1: hBMP2 (human, UniProt P12643 283-396)
# T1 sequence (looked up): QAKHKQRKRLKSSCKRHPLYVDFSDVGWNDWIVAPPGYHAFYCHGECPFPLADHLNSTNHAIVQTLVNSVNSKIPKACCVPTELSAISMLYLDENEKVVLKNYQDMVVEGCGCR
# T2: hBMP4 (human, UniProt P12644 293-408)
# T2 sequence (looked up): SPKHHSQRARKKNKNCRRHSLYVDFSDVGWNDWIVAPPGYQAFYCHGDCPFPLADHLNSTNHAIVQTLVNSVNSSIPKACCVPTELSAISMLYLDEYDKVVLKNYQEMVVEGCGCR
# T3: hBMP6 (human, UniProt P22004 382-513, limits assumed)
# T3 sequence (looked up): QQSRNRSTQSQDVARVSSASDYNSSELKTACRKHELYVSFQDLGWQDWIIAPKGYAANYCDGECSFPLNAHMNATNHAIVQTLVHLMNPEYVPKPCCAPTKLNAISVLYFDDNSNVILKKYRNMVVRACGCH
# T4: hBMP7 (human, UniProt P18075 293-431)
# T4 sequence (looked up): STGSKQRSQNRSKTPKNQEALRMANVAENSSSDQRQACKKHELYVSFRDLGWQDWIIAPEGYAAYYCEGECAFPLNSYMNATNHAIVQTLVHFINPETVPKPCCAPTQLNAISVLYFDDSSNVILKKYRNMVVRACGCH
# B1: hALK3(24-152)-hFc derived from HEK 293 cells (Fc fusion)
# chain: QNLDSMLHGTGMKSDSDQKKSENGVTLAPEDTLPFLKCYCSGHCPDDAINNTCITNGHCFAIIEEDDQGETTLASGCMKYEGSDFQCKDSPKAQLRRTIECCRTNLCNQYLQPTLPPVVIGPFFDGSIRTG[skipping human IgG1 Fc and a few adjoining residues]
# notes: also called Full Length; full-length ALK3 ECD
# B2: hALK3(30-152)-hFc (Fc fusion)
# chain: LHGTGMKSDSDQKKSENGVTLAPEDTLPFLKCYCSGHCPDDAINNTCITNGHCFAIIEEDDQGETTLASGCMKYEGSDFQCKDSPKAQLRRTIECCRTNLCNQYLQPTLPPVVIGPFFDGSIRTG[skipping human IgG1 Fc and a few adjoining residues]
# notes: Expressed in HEK 293 cells for the assay; also called ALK3NΔ6
# B3: hALK3(36-152)-hFc (Fc fusion)
# chain: KSDSDQKKSENGVTLAPEDTLPFLKCYCSGHCPDDAINNTCITNGHCFAIIEEDDQGETTLASGCMKYEGSDFQCKDSPKAQLRRTIECCRTNLCNQYLQPTLPPVVIGPFFDGSIRTG[skipping human IgG1 Fc and a few adjoining residues]
# notes: Expressed in HEK 293 cells; also called ALK3NΔ12
# B4: hALK3(51-152)-hFc (Fc fusion)
# chain: APEDTLPFLKCYCSGHCPDDAINNTCITNGHCFAIIEEDDQGETTLASGCMKYEGSDFQCKDSPKAQLRRTIECCRTNLCNQYLQPTLPPVVIGPFFDGSIRTG[skipping human IgG1 Fc and a few adjoining residues]
# notes: Expressed in HEK 293 cells; also called ALK3NΔ27
# B5: hALK3(55-152)-hFc (Fc fusion)
# chain: TLPFLKCYCSGHCPDDAINNTCITNGHCFAIIEEDDQGETTLASGCMKYEGSDFQCKDSPKAQLRRTIECCRTNLCNQYLQPTLPPVVIGPFFDGSIRTG[skipping human IgG1 Fc and a few adjoining residues]
# notes: Expressed in HEK 293 cells; also called ALK3NΔ31
# B6: hALK3(24-146)-hFc (Fc fusion)
# chain: QNLDSMLHGTGMKSDSDQKKSENGVTLAPEDTLPFLKCYCSGHCPDDAINNTCITNGHCFAIIEEDDQGETTLASGCMKYEGSDFQCKDSPKAQLRRTIECCRTNLCNQYLQPTLPPVVIGPFTG[skipping human IgG1 Fc and a few adjoining residues]
# notes: Expressed in HEK 293 cells for the assay; also called ALK3CΔ6
# B7: hALK3(24-140)-hFc (Fc fusion)
# chain: QNLDSMLHGTGMKSDSDQKKSENGVTLAPEDTLPFLKCYCSGHCPDDAINNTCITNGHCFAIIEEDDQGETTLASGCMKYEGSDFQCKDSPKAQLRRTIECCRTNLCNQYLQPTLPPTG[skipping human IgG1 Fc and a few adjoining residues]
# notes: Expressed in HEK 293 cells for the assay; also called ALK3CΔ12
# B8: hALK3(30-146)-hFc (Fc fusion)
# chain: LHGTGMKSDSDQKKSENGVTLAPEDTLPFLKCYCSGHCPDDAINNTCITNGHCFAIIEEDDQGETTLASGCMKYEGSDFQCKDSPKAQLRRTIECCRTNLCNQYLQPTLPPVVIGPFTG[skipping human IgG1 Fc and a few adjoining residues]
# notes: Expressed in HEK 293 cells for the assay; also called ALK3NΔ6CΔ6; double-truncated variant
# Assays:
# Experiment in all cases: Biacore (SPR); construct expressed in HEK 293 cells
# hBMP2 = target: T1, hBMP2
# Description: (§1) ALK3 ECD variants with N-terminal deletions of 6, 12, 27, or 31 amino acids, C-terminal deletions of 6 or 12 amino acids, and a double-truncation were expressed in HEK 293 cells and purified by Mab chromatography (Protein A column). Biacore™ methodology was used to screen members of the BMP/GDF/TGFβ ligand superfamily for binding to these variants.
# hBMP4 = target: T2, hBMP4
# Description: as §1
# hBMP6 = target: T3, hBMP6
# Description: as §1
# hBMP7 = target: T4, hBMP7
# Description: as §1
Binder,Kd (hBMP2) [nM],Kd (hBMP4) [nM],Kd (hBMP6) [nM],Kd (hBMP7) [nM],binding result (hBMP7),binding result (hBMP4),binding result (hBMP6)
B1,0.653,1.02,17.3,5.99,,,
B2,0.869,1.61,12.8,,no binding,,
B3,1.04,,5.28,,no binding,no binding,
B4,1.57,,8.04,4.29,,no binding,
B5,0.663,,17,3.67,,no binding,
B6,0.532,0.396,,,no binding,,no binding
B7,0.769,0.446,,5.9,,,no binding
B8,0.437,0.329,,,no binding,,no binding
